The whole screen tested about 360,000 compounds, of which about 6,000 (1.7%) were called active. This list was built around the results that the source calls inconclusive (neither active nor inactive); the mix of calls is not that of the screen. Calls follow the shape of the dose curve; as a rule, active = well fitted cell-killing curve with a large enough effect; inconclusive = small, poorly fitted or top-dose-only effect, or effect the other way; inactive = flat fitted curve, though single readings scatter. No potency is given beside an inconclusive call; the fits are too rough.
test: qHTS for induction of synthetic lethality in tumor cells producing 2HG: qHTS for the HT-1080-NT fibrosarcoma cell line; conditions: HT-1080-NT fibrosarcoma viability, CellTiter-Glo ATP luminescence, 48 h; activity, negative = less viability: at 46.1 µM (top of the series) unless noted;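 also: NT is the 2HG producing partner of a matched IDH1 knockdown line; nearly all actives have a fitted effect of over 55% in size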;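 as to activity, negative = less viability: 0% = DMSO-treated cells and -100% = media-only wells without cells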
In short: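 HT-1080-NT; 750 cells/well; 5% FBS RPMI; 48 h compound, 37 degrees C; CellTiter-Glo luminescence; curve fitting and curve-class assignment.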
Potency is read from the fitted curve at half-maximal effect; tags tell the direction and shape of the fitted curve.

Structure (SMILES)	Potency	activity, negative = less viability
CCc1ccc(Nc2nnc(SCC(=O)NC(=O)c3cccn3C)s2)cc1	inconclusive [cytotoxic, single point]	
NC(Cc1ccc(C(F)(F)F)cc1)c1csc(Nc2ncccn2)n1 (stereo not drawn)	inconclusive [cytotoxic, single point]	
CC(=O)c1ccc(-c2nc3ccccc3n2C)o1		inactive: -0.381%
CCOC(=O)c1c(-c2cccs2)csc1N		inactive: -14.8%
COc1ccc(C2N(c3ccc(Cl)cc3)N=C(C(C)=O)N(C)N2C(C)=O)cc1 (stereo not drawn)	inconclusive [cytotoxic, single point]	
O=C(CCCOc1ccc(Cl)cc1Cl)NNC(=O)C1CCC1		inactive: -13.1%
Cc1ccc(-n2c(=O)c3sccc3n(CC(=O)NCc3ccco3)c2=O)cc1F	inconclusive [cytotoxic, single point]	
CCCC[C@H](CN[C@@H](CNC)[C@H](C)CC)NCCC12CCC(CC1)C2	inconclusive [cytotoxic, single point]	
O=C1NC(c2ccccc2)=C(c2nc3ccccc3s2)C(c2ccc(O)cc2)N1 (stereo not drawn)	active: 7.94 µM	
COc1ccccc1Nc1nc(N2CCOCC2)nc(N2CCOCC2)n1		inactive: -1.7%
COc1cccc(C(=O)Oc2cc(N)n(S(=O)(=O)c3ccc(C)cc3)n2)c1OC	inconclusive [cytotoxic, single point]	
Cc1cc(C(=O)NNc2ccc(F)cc2)no1	inconclusive [cytotoxic, full curve]	
Cc1nn(C)c(C)c1NC(=O)CSc1nnc(C)n1-c1ccccc1		inactive: 6.26%
CCC1=NN(C(=O)C(=O)Nc2ccc(OC)cc2)C(O)(C(F)(F)F)C1 (stereo not drawn)	active: 8.91 µM	
CCC(CC)C(=O)Nc1cccc(C(=O)Nc2ccc(S(=O)(=O)Nc3ccc(C)cc3)cc2)c1	inconclusive [cytotoxic, single point]	
Cc1ccc(F)cc1C(=O)N1CCCC1(C)C(=O)NCC(C)C (stereo not drawn)	inconclusive [rising, single point]	
CCOC(=O)C1CCN(c2c(Nc3cc(C)cc(C)c3)c(=O)c2=O)CC1	inconclusive [cytotoxic, single point]	
CCOc1ccccc1NC(=O)C(c1ccccc1)N1CCN(CC(=O)N2CCOCC2)CC1 (stereo not drawn)		inactive: 9.2% [at 9.24 µM]
COc1cc2c(cc1NC(=S)Nc1cccc(C(F)(F)F)c1)oc1ccccc12	inconclusive [cytotoxic, single point]	
COc1cccc(-c2nc(NCCN3CCOCC3)c3ccccc3n2)c1O	inconclusive [cytotoxic, single point]	
COc1ccc(-n2nc3c(c2NC(=O)C(C)Oc2ccccc2)CS(=O)(=O)C3)cc1 (stereo not drawn)		inactive: -2.61%
Cc1cc(/C=N/Nc2nc(N3CCOCC3)nc(N3CCOCC3)n2)c(C)n1-c1ccccc1	inconclusive [cytotoxic, single point]	
COc1ccc(-c2csc(Nc3ccc(S(N)(=O)=O)cc3)n2)cc1	inconclusive [cytotoxic, single point]	
COc1cc(CC(=O)NCc2ccc3c(c2)OCO3)cc(OC)c1OC		inactive: 13.4%
CC[C@]12c3[nH]c4cc(-c5ccco5)ccc4c3CCN1C(=O)[C@@H](CC(=O)NCCc1ccccn1)C[C@@H]2C(=O)N1CCN(C(=O)C2CC2)CC1		inactive: -4.57%

Structure (SMILES)	Potency	activity, negative = less viability
Cc1ccc(S(=O)(=O)NCc2ccccc2NS(=O)(=O)c2ccc(C)cc2)cc1		inactive: -23.7%
C#CCn1c(=NC(=O)c2ccco2)sc2cccc(Cl)c21		inactive: 8.27%
Cc1noc(C)c1COc1ccc(C(=O)NNC(=O)c2ccccc2)cc1	inconclusive [cytotoxic, partial curve]	
CC(=O)NNC(=S)NC(=O)C(c1ccccc1)c1ccccc1	inconclusive [cytotoxic, partial curve]	
CN(C)CCN(Cc1ccccc1)C(c1cc2ccccc2o1)c1nnnn1C(C)(C)C (stereo not drawn)	inconclusive [cytotoxic, single point]	
O=C(CSc1ccc2nnc(-c3cccnc3)n2n1)Nc1ccccc1C(F)(F)F		inactive: 15.6%
O=C(/C=C/c1ccc2c(c1)OCO2)N1CCOCC1		inactive: -2.11%
COc1ccc(-c2csc(C(O)(c3ccccc3)C(F)(F)F)n2)cn1 (stereo not drawn)	active: 23.1 µM	
COc1ccc(Nc2nc(NCC3CCCO3)c3ccccc3n2)c(OC)c1 (stereo not drawn)	inconclusive [cytotoxic, single point]	
Cc1ccc2nc(SC(C(=O)Nc3ccc(F)cc3)c3ccccc3)[nH]c2c1 (stereo not drawn)	inconclusive [cytotoxic, single point]	
CCn1cc(Cl)c(C(=O)Nc2cccc(C(F)(F)F)c2)n1		inactive: -13.3%
CCc1ccc(-c2cc(C(=O)Nn3cnnc3)c3ccccc3n2)cc1	active: 10 µM	
CC1=NOC(=O)/C1=C\c1ccc(-c2ccc(Br)cc2)o1	inconclusive [cytotoxic, single point]	
Cc1ccc(CSCc2ccc(C(=O)NC3CC3)o2)cc1	inconclusive [cytotoxic, single point]	
O=S1(=O)C=C(Sc2nc3ccccc3s2)c2ccccc21	active: 2.31 µM	
Cc1ccc(S(=O)(=O)Nc2cccc(C(=O)NCc3cccnc3)c2)cc1F	inconclusive [cytotoxic, single point]	
Cc1c(N2C(=O)/C(=C3\C(=O)N(CC(=O)O)c4ccccc43)SC2=S)c(=O)n(-c2ccccc2)n1C	inconclusive [rising, single point]	
Cc1ccc(C)c(N2CCN(C(=O)C(Cc3ccccc3)n3cccc3)CC2)c1 (stereo not drawn)		inconclusive: -30.7% [cytotoxic]
Cc1nnc(NCc2ccccc2)c2ccccc12		inactive: -13.6%
O=C(NC(c1ccccc1)c1cnccn1)C1CCN(Cc2ccc(Cl)c(Cl)c2)CC1 (stereo not drawn)	inconclusive [cytotoxic, single point]	
O=C(Nc1ccc(-c2ccc3nncn3n2)cc1)C1CCCC1		inactive: 16.8%
Nc1c(C(=O)NCCN2CCOCC2)c2nc3ccccc3nc2n1-c1ccc2c(c1)OCO2	inconclusive [cytotoxic, single point]	
COCc1cc(C)nc(SCC(=O)c2ccc(O)c(O)c2)c1C#N	inconclusive [cytotoxic, single point]	
O=S(=O)(NCc1ccccc1)c1ccc2c(c1)OCCO2		inconclusive: 8.9%
CC1(C)N=C(N)N=C(N)N1c1ccccc1	active: 3.66 µM	

Structure (SMILES)	Potency	activity, negative = less viability
CN1CCN(CC(O)(c2ccc(Cl)cc2)c2ccc(Cl)cc2)CC1	active: 18.4 µM	
CC1(C)Cc2ccccc2C(/C(=N\Nc2cccc(Cl)c2)C(N)=O)=N1	active: 20.6 µM	
CCCCC[C@H](C)N1C[C@H](COCc2ccccc2)Oc2cc(N3CC[C@H](O)C3)ccc2S1(=O)=O	inconclusive [cytotoxic, single point]	
CC(=O)c1cc(-c2ccccc2)n(CCC(=O)NC2CCCCCCC2)c1C	inconclusive [cytotoxic, single point]	
CCOC(=O)C1=CCC(c2cc3ccccc3[nH]2)NC1 (stereo not drawn)		inactive: -27.5%
COC(=O)c1oc2ccc(OC)cc2c1N		inactive: 9.96%
O=C1c2cccc3cccc(c23)C(=O)N1CC1CCN(CC(O)COc2ccc3ccccc3c2)CC1 (stereo not drawn)	active: 18.4 µM	
COCCNC(=O)C1CCCN(C(=O)c2ccc(C(F)(F)F)nc2C)CC1 (stereo not drawn)	inconclusive [rising, single point]	
CN(C)c1ccc(/C=C/c2ccc3ccccc3n2)cc1	inconclusive [cytotoxic, partial curve]	
COc1ccc(S(=O)(=O)n2[nH]c(=O)c(CCO)c2C)cc1	inconclusive [rising, single point]	
CCCc1nc2nc(C)c(NS(=O)(=O)c3ccc(F)cc3)c(=O)n2[nH]1	inconclusive [rising, partial curve]	
CCOc1ccc(C(C)=O)cc1CN1C(=O)c2ccccc2S1(=O)=O	inconclusive [cytotoxic, partial curve, poor fit]	
COc1ccc(NC(=O)C2(C)Cc3c(-c4cccc(C(N)=O)c4)ccnc3O2)cn1 (stereo not drawn)	inconclusive [cytotoxic, full curve]	
Cc1c(Cl)ccc2c1NC(=O)[C@]21[C@@H]2C(=O)N(Cc3ccccc3)C(=O)[C@@H]2[C@@H]2CCCN21	inconclusive [cytotoxic, partial curve]	
COc1ccc(C(CC(=O)N2CCCC(C)C2)c2c(OC)cc(OC)c3ccc(=O)oc23)cc1 (stereo not drawn)		inactive: -5.41%
CC(C)(C)c1ccc(NC(=S)NCc2cccs2)cc1	inconclusive [cytotoxic, single point]	
O=C(Nc1nncs1)C1CC(=O)N(C2CCCC2)C1 (stereo not drawn)		inactive: 2.51%
COc1cccc(-c2c(-c3cc(OC)cc(OC)c3)n(C)c3ccc(-c4cnc(OC)nc4)cc23)c1		inactive: -3.95%
COc1ccc(S(=O)(=O)NCc2ccncc2)cc1NC(=O)c1ccccc1	inconclusive [cytotoxic, single point]	
CC(=O)Nc1ccc(N/C=C/C(=O)c2ccccc2)cc1	inconclusive [cytotoxic, single point]	
CC(=O)NC(c1cccc(F)c1)c1nc(-c2cnc3ccccc3c2)cs1 (stereo not drawn)		inactive: -11.3%
O=C(c1ccc2c(=O)n(Cc3ccc(Cl)cc3)c(=S)[nH]c2c1)N1CCCC1		inactive: 20.5%
COc1ccc(-c2onc(C)c2C)cc1S(=O)(=O)NCCc1ccco1	inconclusive [cytotoxic, single point]	

Reference: PubChem BioAssay AID686970 (National Center for Advancing Translational Sciences (NCATS), 2013)
